In the supplement of paper PMC11383711:
This is one part of the list. Binding of human antibodies (heavy:light variable regions, tested as scFv in one mRNA-display pool) to influenza hemagglutinin, with or without the stem antibody CR9114 bound first. Score = (mean enrichment − median) / interquartile range of that screen; higher = more enriched, 0 = typical non-binder. Active = above the paper's cut-off per screen: stems 28; unblocked H1 Solomon Islands 5, H1 Michigan 3, H3 5, H5 19, H7 2.85, both B 5; blocked 9, 7, H5 10, H7 10, B Phuket 10, B Lee 11.5. Scores are scaled within each screen and are no affinities; replicates correlate at about 0.6 to 0.9, and antibodies rare in the pool are noisier.

Columns and labels:
Assay in all cases: mRNA display binding score; higher = more enriched on the antigen
[1] = target: Influenza A H1N1 A/Michigan/45/2015 hemagglutinin ectodomain
Protocol: (§1)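 A pool of natively paired antibodies, displayed as scFv on mRNA, was selected once on antigen-coated beads and sequenced before and after; two replicates.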

[2] = target: Influenza A H1N1 A/Solomon Islands/3/2006 hemagglutinin ectodomain
Protocol: as §1

[3] = target: Influenza A H3N2 A/Singapore/INFIMH-16-0019/2016 hemagglutinin ectodomain; settings: antigen blocked with: nothing
Protocol: as §1

[4] = target: Influenza A H5N1 A/Qinghai/1A/2005 hemagglutinin ectodomain
Protocol: as §1

[5] = target: Influenza A H7N9 A/Shanghai/2/2013 hemagglutinin ectodomain
Protocol: as §1

[6] = target: Influenza B/Lee/1940 hemagglutinin ectodomain
Protocol: as §1

[7] = target: Influenza B/Phuket/3073/2013 hemagglutinin ectodomain
Protocol: as §1

[8] = antigen blocked with: 2 µM CR9114 IgG

Measured: mRNA display binding score

B1: antibody 2E03 (protein)
chain 1: VQLVESGGGLVQPGRSLRLSCAASGFSFYDYAMSWVRQAPGRGLEWVGFIRSYTYGGTTEYAASVRGRFTISRDDSNNIAYLQMNSLKTEDTAVYYCTNLGSSWLNAGLYYYYDMDVWGQGTTVTVSS
chain 2: DIQMTQSPSSLSASVGDRVTITCRASQSIRRYLNWFQQRPGKAPKLLIYEVSNLPTGVPSRFSGSGSGTDFTLTISGLRPEDFATYFCQQNFRTFGPGTKVDIK
active: [6]; [8] 24.7 | [6]; antigen blocked with: nothing 11.5 | [7]; [8] 50 | [7]; antigen blocked with: nothing 5.64
inactive: [1]; [8] 0.294 | [1]; antigen blocked with: nothing 0.288 | [2]; [8] 1 | [2]; antigen blocked with: nothing -0.144 | [3] -0.466 | [4]; [8] 5.81 | [4]; antigen blocked with: nothing 0.546 | [5]; [8] 0.128 | [5]; antigen blocked with: nothing 0.826

B2: FluA-152 (protein)
chain 1: QVTLRESGPALVKPTQTLTLTCTFSGFSLSTSGMCVSWIRQPPGKALEWLARIDWGDDKYYSTSLKTRLTISKDTSKNQVVLRMINMDPVDTATYYCARTHAERLYTSDYYYYAMDVWGQGTTVTVSS
chain 2: DIQMTQSPSSLSASVGDRVTITCRASQSISNYLNWYQQKPGKAPKLLIYVASNLQTGVPSRFSGSGSGTDFSLTISSLQPEDFATYYCQQTYSSLTFGQGTRLAIK
inactive: [1]; [8] 0.58 | [1]; antigen blocked with: nothing 0.316 | [2]; [8] 0.447 | [2]; antigen blocked with: nothing 1.57 | [3] 1.59 | [4]; [8] 0.683 | [4]; antigen blocked with: nothing 0.781 | [5]; [8] 0.72 | [5]; antigen blocked with: nothing 1.31 | [6]; [8] 0.464 | [6]; antigen blocked with: nothing -0.109 | [7]; [8] 0.874 | [7]; antigen blocked with: nothing 0.362

B3: 236-14-IgG-1B03 (protein)
chain 1: QVQLVQSGAEVKKPGASVKVSCKASGYTFADYYIHWVRQAPGQGLEWMGWMNPNTGGTNYAQKFQGRVTMTRDTSIRTAYMELSRLRSDDTAIFYCARDLGDTTTSDYWGQGTLVTVSS
chain 2: SYELTQPPSVSVSPGQTARITCSGDALPQQYASWYQQRPGQAPVLVIYKDTERPSGIPERFSGSTSGTTVTLTISGVQAEDEADYYCQSVDITATFGFGGGTKLTVL
inactive: [1]; [8] -0.113 | [1]; antigen blocked with: nothing -0.598 | [2]; [8] 0.0692 | [2]; antigen blocked with: nothing -0.548 | [3] -0.517 | [4]; [8] -0.881 | [4]; antigen blocked with: nothing -0.521 | [5]; [8] 0.055 | [5]; antigen blocked with: nothing -0.634 | [6]; [8] 0.443 | [6]; antigen blocked with: nothing -0.143 | [7]; [8] -0.463 | [7]; antigen blocked with: nothing -0.277

B4: 31.a.55 (protein)
chain 1: EVQLLESGGGLVKPGGSLRLSCEASEFTFSSHAMSWVRQAPGKGLEWVSAISGNGGSTYYADSVKGRFTISRDNSKNTLYLQMNSLRAEDTALYYCTKDRSPPVFDLMPGYYSSFYYMDVWGKGTTVTVSS
chain 2: EIVMTQSPATLSVSPGERATLSCRASQSVRGNLAWYQQKPGQAPRLLIYGASTRATDIPARFSGSGSGTEFTLTISSLQSEDFAVYYCQQYNHWLRTFGQGTKLEIK
inactive: [1]; [8] -0.19 | [2]; [8] 2.32 | [4]; [8] -0.0549 | [4]; antigen blocked with: nothing 0.516 | [5]; [8] -0.781 | [5]; antigen blocked with: nothing 1.3 | [6]; [8] -1.27 | [6]; antigen blocked with: nothing 0.711 | [7]; [8] 0.681 | [7]; antigen blocked with: nothing 0.641
active: [1]; antigen blocked with: nothing 5.79 | [2]; antigen blocked with: nothing 8.95 | [3] 299

B5: K77-2G04 (protein)
chain 1: EVQLVQSGGGVVRPGGSLRLSCAGSGFAFDEYGMTWVRQVPGKGLEWVSNINWHGNSAAYADSVKGRFTISRDNARNSLYLQMNRLRAEDTALYYCARNRQPDTSMDYFYYFGMNVWGQGTTVTVSS
chain 2: DIQMTQSPSSLSASVGDRVTISCQASQDINKYLSWYQQKPGKAPKLLIYDASNLETGVPSRFSGSGSGTEFTLTISSLQPADIATYYCQQYDNVPVTFGRGTNLEIK
active: [6]; antigen blocked with: nothing 43.1
inactive: [1]; [8] -0.16 | [1]; antigen blocked with: nothing 0.104 | [2]; [8] -0.692 | [2]; antigen blocked with: nothing 1.22 | [3] 2.39 | [4]; [8] -1.16 | [4]; antigen blocked with: nothing 0.587 | [5]; [8] -1.41 | [5]; antigen blocked with: nothing -0.284 | [6]; [8] 6.76 | [7]; [8] 2.02 | [7]; antigen blocked with: nothing 0.832

B6: 01.ad.01 (protein)
chain 1: EVQLAESGGGLVQPGGSLRLSCAASGFSFHSYAMNWVRQAPGKGLEWVSGTGGSGLSTYYADSVKGRFTISRDNSKNTLYLQMNRLRAEDTAVYYCAKSPSWDKNFYDSGSYYFYFDYWGQGNLVTVSS
chain 2: EIVLTQSPVSLSLSPGERAALSCRASQSLSSRFLAWYQQKPGQAPRLLIHGASSRATGIPDRFSGSGSGTDFTLTISRLEPEDFAVYYCQQYGSAPLTFGGGTKVEMK
active: [3] 42.6
inactive: [1]; [8] 0.314 | [1]; antigen blocked with: nothing -0.34 | [2]; [8] -0.644 | [2]; antigen blocked with: nothing 1.19 | [4]; [8] -0.712 | [4]; antigen blocked with: nothing 0.189 | [5]; [8] 1.2 | [5]; antigen blocked with: nothing -0.572 | [6]; [8] -0.125 | [6]; antigen blocked with: nothing 0.251 | [7]; [8] -0.0741 | [7]; antigen blocked with: nothing -0.235
